What was measured:
[1] = molecular target: T1, cell surface-associated ROR1 on human cancer cell lines (human, UniProt Q01973 30-937); test: cell-based or functional assay
[2] = molecular target: T2, CD3 on Jurkat cells (human, UniProt P07766; P04234; P09693; P20963); test: flow cytometry on Jurkat cells
T2 construct: also called CD3 positive cell line Jurkat; CD3 expressing Jurkat cell line

[3] = molecular target: T1, cell surface-associated ROR1 on human …; test: flow cytometry on JEKO-1 cells

T1 sequence (Q01973 30-937): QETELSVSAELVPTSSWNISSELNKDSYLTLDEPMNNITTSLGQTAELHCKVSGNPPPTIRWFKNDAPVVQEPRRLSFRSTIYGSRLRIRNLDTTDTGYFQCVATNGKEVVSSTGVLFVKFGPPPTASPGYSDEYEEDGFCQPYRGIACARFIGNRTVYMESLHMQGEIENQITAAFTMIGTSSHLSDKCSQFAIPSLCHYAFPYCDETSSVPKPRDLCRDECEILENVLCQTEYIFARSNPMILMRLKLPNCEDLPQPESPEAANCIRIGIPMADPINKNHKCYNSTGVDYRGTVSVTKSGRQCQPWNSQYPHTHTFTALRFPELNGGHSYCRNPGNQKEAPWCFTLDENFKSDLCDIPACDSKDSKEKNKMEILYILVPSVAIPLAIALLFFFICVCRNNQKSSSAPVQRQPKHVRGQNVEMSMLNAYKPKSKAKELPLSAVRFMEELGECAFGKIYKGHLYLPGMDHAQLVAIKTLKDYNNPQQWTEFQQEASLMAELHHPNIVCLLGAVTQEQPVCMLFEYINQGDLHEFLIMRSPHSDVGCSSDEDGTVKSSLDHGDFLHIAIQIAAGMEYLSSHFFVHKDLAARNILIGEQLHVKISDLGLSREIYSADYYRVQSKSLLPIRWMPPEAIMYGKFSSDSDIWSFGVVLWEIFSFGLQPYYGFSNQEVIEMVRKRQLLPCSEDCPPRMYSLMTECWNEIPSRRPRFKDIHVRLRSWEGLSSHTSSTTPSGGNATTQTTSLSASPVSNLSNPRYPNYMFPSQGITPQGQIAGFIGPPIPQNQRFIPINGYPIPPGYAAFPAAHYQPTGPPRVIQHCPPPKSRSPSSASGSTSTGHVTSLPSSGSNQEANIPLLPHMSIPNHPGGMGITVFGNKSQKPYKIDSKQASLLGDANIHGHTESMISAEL
T2 sequence (P07766 23-207 limits assumed, chain 1 of 4): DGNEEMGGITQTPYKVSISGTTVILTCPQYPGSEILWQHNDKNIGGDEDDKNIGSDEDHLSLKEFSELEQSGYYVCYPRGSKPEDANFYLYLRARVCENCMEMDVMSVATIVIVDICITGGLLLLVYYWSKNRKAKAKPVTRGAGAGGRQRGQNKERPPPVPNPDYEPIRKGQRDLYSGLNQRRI
T2 sequence (P04234 22-171 limits assumed, chain 2 of 4, further chain): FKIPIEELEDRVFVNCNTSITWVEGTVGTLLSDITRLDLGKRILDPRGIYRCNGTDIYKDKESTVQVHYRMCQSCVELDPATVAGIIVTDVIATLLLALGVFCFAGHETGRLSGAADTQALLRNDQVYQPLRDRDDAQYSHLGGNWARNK
T2 sequence (P09693 23-182 limits assumed, chain 3 of 4, further chain): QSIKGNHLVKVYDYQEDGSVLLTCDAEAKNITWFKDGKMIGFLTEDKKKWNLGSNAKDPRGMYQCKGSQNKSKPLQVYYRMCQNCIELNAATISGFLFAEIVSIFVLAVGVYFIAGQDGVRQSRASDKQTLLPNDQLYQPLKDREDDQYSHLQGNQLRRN
T2 sequence (P20963 22-164 limits assumed, chain 4 of 4, further chain): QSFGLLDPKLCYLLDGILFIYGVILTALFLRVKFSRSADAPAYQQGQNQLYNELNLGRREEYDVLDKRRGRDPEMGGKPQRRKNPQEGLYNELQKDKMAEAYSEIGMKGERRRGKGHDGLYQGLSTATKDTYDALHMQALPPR

B1: 3A3 HBiTE (bispecific antibody targeting ROR1 and CD3) (bispecific antibody)
heavy: EVQLVESGGGVVQPGRSLRLSCAASGFTFSSYGMHWVRQAPGKGLEWVAVISYDGSNKYYADSVKGRFTISRDNSKNTLYLQMNSLRAEDTAVYYCAKDLDYSLWFDPWGQGTLVTVSSGGGSSGGGGSGGGGSEVQLVESGGGLVQPGGSLRLSCAASGFTFNTYAMNWVRQAPGKGLEWVARIRSKYNNYATYYADSVKGRFTISRDDSKNTLYLQMNSLRAEDTAVYYCARHGNFGSSYVSYFAYWGQGTTVTVSSASTKGPSVFPLAPSSKSTSGGTAALGCLVKDYFPEPVTVSWNSGALTSGVHTFPAVLQSSGLYSLSSVVTVPSSSLGTQTYICNVNHKPSNTKVDKKVEPKS[human IgG1 Fc with T366L Y407H (EU numbers) not spelt out]
light: DVVMTQSPLSLPVTPGEPASISCRSSQSLLQSNGYNYVEWFLQKPGQSPQLLIYLGSYRASGVPDRFSGSGSGTDFTLKISRVEAEDVGVYYCMQGTHWPLFTFGPGTKVDIKGGGGSGGGGSGGGGSEIVVTQSPATLSVSPGERATLSCRSSTGAVTTSNYANWVQQKPGQAPRGLIGGANKRAPGVPARFSGSLSGDEATLTISSLQSEDFAVYYCALWYSNLWVFGQGTKLEIKRTVAAPSVFIFPPSDEQLKSGTASVVCLLNNFYPREAKVQWKVDNALQSGNSQESVTEQDSKDSTYSLSSTLTLSKADYEKHKVYACEVTHQGLSSPVTKSFNRGE[human IgG1 Fc with T366L Y407H (EU numbers) not spelt out]
notes: HBiTE format: anti-ROR1 VL/VH - linker - anti-CD3 hSP34 VL-CL / VH-CH1 - monomeric human IgG1 Fc (mFc7.2, T366L and Y407H); About 120 kDa non-reduced, both chains about 62 kDa reduced; also called ROR1-3A3-HB; 3A3 bispecific antibody
With B1 the “killing of JEKO-1 cells in the presence of PBMC, EC50” value [1] was 1.1 ng/mL, the “killing of MDA-MB-231 cells in the presence of PBMC, EC50” value [1] was 14 ng/mL and the “killing of SK-HEP-1 cells in the presence of PBMC, EC50” value [1] was 0.805 ng/mL. For the same binder, the EC50 [2] was 252 nM and the EC50 [3] was 71.4 nM.
